Results taken from PubChem BioAssay AID1645887 (National Center for Advancing Translational Sciences (NCATS), 2021).
Several values for one entry are separate records, joined by “and”; a condition that tells them apart may be missing. Identical values can stand only once. In all, about 16,000 compounds went through this assay and about 40 (0.2%) were called active. Inconclusive results (about 1%) are left out. The call rests on the fitted dose curve; in most records, active means well fitted activation curve with a large enough effect; inconclusive means small, poorly fitted or top-dose-only effect, or another doubt; inactive means no such curve, though single readings can be large or run the other way. Some of the results follow.

biological target: Rap guanine nucleotide exchange factor 4 (Homo sapiens) (UniProt Q8WZA2); assay: Validation qHTS for agonist of cAMP-regulated guanine nucleotide exchange factor 4 (EPAC2); settings: EPAC2 Rap1B BODIPY-GDP exchange, fluorescence; activation: active compounds read high;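 further: exchange makes BODIPY-GDP fluorescence drop when released from Rap1B; series mostly up to about 150 µM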
Chain of UniProt Q8WZA2 (Q8WZA2 whole entry, looked up): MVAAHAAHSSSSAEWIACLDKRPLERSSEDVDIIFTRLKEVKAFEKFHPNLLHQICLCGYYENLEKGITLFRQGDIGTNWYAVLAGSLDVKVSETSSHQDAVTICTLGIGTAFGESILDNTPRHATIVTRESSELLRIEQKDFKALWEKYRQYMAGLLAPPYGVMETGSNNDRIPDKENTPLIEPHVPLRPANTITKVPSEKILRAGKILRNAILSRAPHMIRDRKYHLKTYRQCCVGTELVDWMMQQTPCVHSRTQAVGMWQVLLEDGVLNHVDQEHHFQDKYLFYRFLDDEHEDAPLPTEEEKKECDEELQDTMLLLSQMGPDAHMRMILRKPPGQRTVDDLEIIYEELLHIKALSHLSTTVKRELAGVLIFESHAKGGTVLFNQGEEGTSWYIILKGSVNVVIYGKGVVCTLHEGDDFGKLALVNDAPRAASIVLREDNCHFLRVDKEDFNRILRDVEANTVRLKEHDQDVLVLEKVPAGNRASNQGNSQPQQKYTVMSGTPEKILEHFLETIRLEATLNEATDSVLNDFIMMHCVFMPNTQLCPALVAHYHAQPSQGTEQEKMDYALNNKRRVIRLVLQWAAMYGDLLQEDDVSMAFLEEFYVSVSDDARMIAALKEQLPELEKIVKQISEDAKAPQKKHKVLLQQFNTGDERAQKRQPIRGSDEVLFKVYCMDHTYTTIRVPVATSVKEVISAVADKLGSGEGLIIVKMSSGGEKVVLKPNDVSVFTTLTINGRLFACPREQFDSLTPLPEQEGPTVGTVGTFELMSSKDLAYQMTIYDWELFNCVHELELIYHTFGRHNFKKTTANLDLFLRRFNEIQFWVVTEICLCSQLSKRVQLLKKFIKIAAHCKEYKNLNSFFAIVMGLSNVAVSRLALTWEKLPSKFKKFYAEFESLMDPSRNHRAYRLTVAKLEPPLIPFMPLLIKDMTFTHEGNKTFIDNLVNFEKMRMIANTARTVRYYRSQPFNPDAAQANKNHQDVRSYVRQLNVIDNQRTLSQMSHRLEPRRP
Outline: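 Signal normalized against 6.5 mM cAMP as agonist control. Mix of EPAC2 (100 nM), RAP1B-BODIPY-GDP (250 nM) and GDP (50 uM) was read kinetically at 480/540 nm, every 5 min over 30 min, after 5 min room-temperature incubation with compound.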
On the % scale 0 is the no-effect control and ±100 the full control effect.

activation, inactive:
CS(=O)(=O)CCNCc1ccc(-c2ccc3ncnc(Nc4ccc(OCc5cccc(F)c5)c(Cl)c4)c3c2)o1 13.8%
O=C(Nc1ccc(O)cc1)c1ccccc1O 5.21%
Cc1noc(C)c1C(=O)N1CCC[C@@]2(CCN(C(=O)NC(C)C)C2)C1 -14%
Cn1c(=O)c(-c2ccc(Cl)cc2)nc2cncnc21 -2.55%
COc1cc(-c2coc3cc(OC)c(OC)c(OC)c3c2=O)cc(OC)c1OC -2.62%
COC(=O)CC1C(C)(C)C(OC(C)=O)C2CC3C4CC(=O)OC(c5ccoc5)[C@]4(C)CCC3[C@@]1(C)C2=O (stereo partly specified) 0.992%
N#CC[C@H](Cc1ccccc1)N1CC[C@@H](O)CCC1=O -11.4%
Cc1ccccc1-c1cc(N(C)C)ncn1 -21.9%
O=c1c(-c2ccc(Cl)cc2)nc2cnc(N3CCOCC3)nc2n1C1CC1 -9.88%
CN(C)CC(C)(O)c1ccc2c(c1)CN(Cc1cn(C)c3ccccc13)CCO2 (stereo unspecified) 0.854%
Nc1ccc(-c2nc3ccc(-c4nc5ccc(N)cc5[nH]4)cc3[nH]2)cc1 -13.5%
O=C(c1csnn1)N1CCC[C@@]2(CCN(Cc3ccccc3)C2)C1 -9.79%
COc1ncc2ncc(=O)n(CCc3ccccc3)c2n1 -6.96%
COC(=O)N1CCC2(CCCN(C(=O)Nc3ccccc3)C2)CC1 5.29%
Clc1ccccc1-c1nc(NC2CCNCC2)c2ccccc2n1 -14.2%
CCC(=O)c1ccc(O)cc1 -10.5%
C[C@]12CCC3c4ccc(OC(=O)c5ccccc5)cc4CCC3C1CCC2=O (stereo partly specified) -2.25%
COC(=O)[C@@H]1CCCN1C(=O)c1c(OC)cc(=O)n2c1CCN(Cc1ccc3c(c1)CCO3)CC2 -9.5%
CCNc1ncc2nc(C)c(=O)n(Cc3cccs3)c2n1 -24.7%
Oc1ccc(Cl)c2cccnc12 -17.4% and -17.9%
Cc1ncc2c(c1CNC(=O)c1cncs1)CCN(C(=O)c1ccc(C(C)(C)C)cc1)C2 -24.2%
CC1CN(Cc2cccn2-c2ncccn2)Cc2cc(Cl)ccc2O1 (stereo unspecified) -8.02%
CN1CCc2ccccc2Cc2[nH]c3ccccc3c2CC1 -16.7% and -18.5%
CC(O)(COc1ccccc1)c1ccc2c(c1)CN(Cc1ccc3nsnc3c1)CCO2 (stereo unspecified) 16.5%
C#Cc1cccc(C(=O)NCc2nc(-c3ccccc3NC(C)=O)oc2C)c1 -5.78%
O=C(c1ccccc1)[C@@H]1O[C@H]1c1ccc(-c2ccccc2)cc1 -5.15%
O.O.O.O.O.O.O.O=S(=O)([O-])[O-].[Co+2] -48.9%
COCc1c(C(=O)N2CCN(c3ccccc3O)CC2)cnn1-c1nccc(-c2cccs2)n1 -19.8%
COC(=O)CC1C2(C)CC34OC5(C)O[C@@]6(C7/C(=C(/O)C(C)C)C(=O)OC(c8ccoc8)[C@]7(C)C(OC(C)=O)C(OC(C)=O)[C@]6(O5)[C@@]13C)C(OC(C)=O)[C@]4(O)C2OC(=O)C(C)C (stereo partly specified) -28.6%
O=C(NC1CCCCC1)[C@@H]1CC=C[C@@H]2CCN(Cc3ccc(Cl)c(Cl)c3)C(=O)[C@@H]21 -4.53%
CC(C)NC(=O)N1CCC2(CC1)CCN(C(=O)c1cccn1C)CC2 -16.9%
COc1ccc(C2c3[nH]c4ccccc4c3CC3C(=O)N(CCc4ccc(OC)c(OC)c4)CC(=O)N32)cc1 (stereo unspecified) -4.57%
O=C(O)CCC(=O)N1CCCC1C(=O)O (stereo unspecified) -37.3%
Clc1ccccc1-c1cc(NCc2ccccc2)ncn1 -0.147%
CC(C)(Sc1cc(C(C)(C)C)c(O)c(C(C)(C)C)c1)Sc1cc(C(C)(C)C)c(O)c(C(C)(C)C)c1 -8.06% and 14.6% and -0.134%
COc1cccc(Cn2c(=O)c(C)nc3cnc(N4CCN(C)CC4)nc32)c1 3.34%
CC(C)Cc1nc2cc(NS(=O)(=O)N(C)C)cc(C(=O)N3CCOc4ccccc4C3)c2n1C -16.9%
CC(C)C[C@@H](COc1ccccc1)N1CCN(Cc2ccccc2)CCC1=O -23.4%
COc1ccc(-n2c(=O)c(C)nc3cnc(Nc4cccc(OC)c4)nc32)cc1 -19.1%
CCNc1ncc2nc(-c3cc(F)cc(F)c3)c(=O)n(Cc3ccc(F)cc3)c2n1 1.04%
CN(CC1COCCO1)C(=O)c1cnn(-c2ncc3c(n2)-c2ccccc2CC3)c1C1CC1 (stereo unspecified) 4.6%
COc1cc2ncc(-c3ccccc3)nc2cc1OC -3.11% and -11%
Cc1cn2cc(CNC(=O)CN3Cc4ccccc4OC(c4ccccc4F)C3)nc2s1 (stereo unspecified) 7.78%
Cc1ccccc1-c1nc(NCc2cccnc2)c2ccccc2n1 -16.7%
O=C(c1cc(-c2ccccc2)on1)N1CCOc2ccc(CN3CCOCC3)cc2C1 -1.51%
Cc1cccc([C@@H]2CN(C)CCc3c2cc(O)c(O)c3Cl)c1 -11.8%
N#CCCn1c(=O)c(-c2cccs2)nc2cnc(Oc3cccc(Cl)c3)nc21 -6.59%
CC(C)NC(=O)c1cn([C@H]2CC[C@@H](NC(=O)/C=C/c3cccs3)CC2)nn1 -1.49%
c1nc(NC2CCNCC2)c2cc(-c3ccc4c(c3)OCO4)ccc2n1 -7.95%
O=C(Nc1ccc(Cl)c(C(F)(F)F)c1)[C@@H]1CC=C[C@@H]2CCN(Cc3ccc(Cl)c(Cl)c3)C(=O)[C@@H]21 -35.2%
Cc1ccccc1-c1cncnc1NCCN1CCOCC1 -12.1%
COc1ccc(/C=N/NC(=O)c2ccncc2)c(C(=O)O)c1OC -8.84%
COc1ccc(/C=C/c2ccccn2)cc1 -26.6%
OC[C@@H](O)C(O)[C@H](O)CO -5.83%
Cc1ccc(/C(=C\CN2CCCC2)c2cccc(/C=C/C(=O)O)n2)cc1 -9.15%
Cn1c(O)c(N=NC(N)=S)c2ccccc21 -16.4%
Cc1ccccc1-c1cccc(CN2CCc3nnc(C(C)NC(=O)c4cccnc4)n3CC2)c1 (stereo unspecified) -15.2%
CC(=O)NO -20.5%
CC(N)(Cc1ccc(O)c(O)c1)C(=O)O (stereo unspecified) -27.6%
Cc1ccccc1-c1cncnc1NC1CCNCC1 7%
N[C@@H](Cn1ccc(=O)c(O)c1)C(=O)O -13.2%
O=C(Nc1ccc(Cl)c(C(F)(F)F)c1)[C@@H]1CC=C[C@@H]2CCN(C3CCCCC3)C(=O)[C@@H]21 -13.1%
C/C=C/C=N/NC(=O)c1ccncc1 -6.51%
COc1ccc(CNc2ncncc2-c2ccc(C(=O)N(C)C)cc2)c(OC)c1 7.13%
O=C(Cn1cccn1)N1CCOc2c(cc(-c3ncc(C(F)(F)F)cc3Cl)cc2OCC2CCCO2)C1 (stereo unspecified) -10.6%
COCC(=O)N1CCC2(CCCN(Cc3ccc(C#N)cc3)C2)CC1 -9.03%
COc1cc(O)c2c(=O)c(O)c(-c3ccc(O)c(O)c3)oc2c1 -11.5%
CC(=O)N[C@@H](CCC(N)=O)C(=O)O -4.76%
COc1ccc(-c2c(O)c3c(OC)c4c(cc3oc2=O)OC(C)(C)C=C4)cc1 -4.9%
CCOC(=O)C[C@H]1c2cc(F)ccc2S(=O)(=O)N1C(C)(C)C -22.8%
Cc1ncc2c(c1CNC(=O)c1ccc3c(c1)OCO3)CCN(C(=O)C1Cc3ccccc3O1)C2 (stereo unspecified) -5.78%
O=C(O)C1CCN(c2ncnc3ccc(-c4ccccc4C(F)(F)F)cc23)CC1 -17.2%
COc1cccc(O)c1CN1CCC2(CC1)c1ccccc1[C@@H](NC(=O)c1ccsc1)[C@@H]2OC -27.8%
COC(=O)N1CCC2(CCCN(Cc3nccs3)C2)CC1 -15.6%
CN1CCCN=C1COC(=O)C(O)(c1ccccc1)C1CCCCC1 (stereo unspecified) -9.23%
CC(C)(Oc1ccc(Cl)cc1)C(=O)O -12.1% [middle of 4 runs]
Cc1cnc(CNc2ncnc3ccc(-c4ccccc4C(F)(F)F)cc23)cn1 -9.61%
Cc1nc2cnc(OCc3ccccc3)nc2n(CCc2ccccc2)c1=O 5.31%
[O-][n+]1ccccc1SSc1cccc[n+]1[O-] -2.96%
OCCN1CCN(Cc2ccc3c(c2)CN(Cc2cccc4ncccc24)CCO3)CC1 -10.1%
COc1cccc(-c2ccc3ncnc(NCc4ccc(OC)cc4OC)c3c2)c1 6.05%
CC(=O)NC1C(OC2OC(CC(O)C3OC([N+]4=CCC(=O)NC4=O)C(O)C3O)C(O)C(O)C2NC(=O)/C=C/CCCCCCCCC(C)C)OC(CO)C(O)C1O (stereo unspecified) -35.1%
COc1ccc(C(=O)NCC2Cc3cc(C)cc(-c4nc5ccccc5s4)c3O2)c(OC)c1OC (stereo unspecified) -16%
Cc1cnc(C)c(-c2cccc3c2OC(CNC(=O)C[C@@H]2C[C@@H](C)NC(=S)N2)C3)n1 (stereo partly specified) 1.19%
COc1ccc(CCNCC(O)COc2cccc(C)c2)cc1OC (stereo unspecified) -3.71%
CSc1ccc(C(=O)c2[nH]c(=O)[nH]c2C)cc1 -0.506% and -1.5%
